From the supplement of paper PMC3334620
The full ranking holds about 33,000 sequences; the median of “E-score (-0.5 to 0.5)” is about -0.021, and the highest 2% start at about 0.32. Some of the results follow.

Molecular target: T1, Zap1 (UniProt P47043)
T1 sequence: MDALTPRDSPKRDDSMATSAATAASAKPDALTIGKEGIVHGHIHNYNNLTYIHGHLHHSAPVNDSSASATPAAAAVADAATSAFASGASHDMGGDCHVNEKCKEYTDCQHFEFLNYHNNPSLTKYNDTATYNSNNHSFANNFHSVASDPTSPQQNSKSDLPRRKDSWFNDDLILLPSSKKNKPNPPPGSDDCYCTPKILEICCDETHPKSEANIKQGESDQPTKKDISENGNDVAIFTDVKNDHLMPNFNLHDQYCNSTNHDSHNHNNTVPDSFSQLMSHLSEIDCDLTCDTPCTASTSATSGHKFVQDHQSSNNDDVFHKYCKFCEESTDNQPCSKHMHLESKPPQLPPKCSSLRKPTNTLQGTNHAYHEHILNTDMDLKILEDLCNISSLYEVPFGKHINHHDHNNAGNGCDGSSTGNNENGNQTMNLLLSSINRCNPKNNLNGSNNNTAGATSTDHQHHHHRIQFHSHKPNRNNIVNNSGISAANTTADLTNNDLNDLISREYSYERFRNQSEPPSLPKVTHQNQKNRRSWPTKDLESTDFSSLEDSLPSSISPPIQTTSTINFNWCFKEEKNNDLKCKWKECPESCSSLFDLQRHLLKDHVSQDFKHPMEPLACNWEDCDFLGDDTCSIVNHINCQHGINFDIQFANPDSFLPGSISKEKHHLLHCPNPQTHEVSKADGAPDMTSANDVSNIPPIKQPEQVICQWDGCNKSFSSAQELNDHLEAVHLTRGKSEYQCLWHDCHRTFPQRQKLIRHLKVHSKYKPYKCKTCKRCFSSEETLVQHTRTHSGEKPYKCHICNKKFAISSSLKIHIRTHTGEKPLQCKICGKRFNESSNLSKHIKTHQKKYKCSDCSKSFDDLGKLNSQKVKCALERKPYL
Assay: PBM E-score (8-mer binding enrichment) (E-score (-0.5 to 0.5)); higher = stronger / more preferred TF binding; most listed sequences are background and not binding sites
Settings: protein concentration: 200 nM; construct: GST-full length
How it was run: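 Bound GST-tagged yeast transcription factors, applied at about 100-200 nM to double-stranded universal all-10-mer Agilent arrays, were detected with fluorescent anti-GST. Scans were normalised with masliner. A modified Wilcoxon-Mann-Whitney statistic, the E-score, was assigned to each ungapped eight-base word pooled with its reverse complement by the Universal PBM Analysis Suite.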

Sequence	PBM E-score
ATGAAATA	0.0599
CTTCAACC	0.134
GCAGGCCC	-0.249
CCCATTCC	-0.136
ATATGGAC	0.148
AAACTCCC	-0.136
AAGATTAG	-0.0895
GATGTCCC	-0.095
ATTTTCGA	0.123
GTGGTCTA	0.0864
GCCTTAGC	-0.182
AACTAGAA	0.164
GTCAGGAC	0.00801
CCTAACCC	0.264
ACGATGCT	-0.134
AGCGCCCG	-0.405
ACACCGTC	-0.106
CACGGCCC	0.034
CTTGGGAA	-0.0342
CTAGTAGA	-0.0109
AATAGAAC	0.151
CAGTTGAC	-0.0373
CCGCGCCA	0.0566
GCGTTGAA	-0.0131

Sequence	PBM E-score
GCCCGGTA	-0.121
GGTTTCAA	0.198
GTCGATCA	-0.05
ACTTTCTC	-0.174
CGTAAATA	0.0482
ATTTTCCG	0.168
AATCTTGA	-0.0452
ATTCGTTA	0.0931
AATGCATG	0.0817
CGGACTGC	-0.168
ATTGAGCG	0.00268
ACCCATAA	0.251
AGGCATGG	-0.0823
GCTGCCCC	-0.16
CAGTTAAC	0.07
GCCCCCTA	-0.276
AGATCGAG	-0.0707
CGCCCGCA	-0.122
CACGCTAA	-0.0641
GGAAGTCA	-0.137
AGCATGCC	-0.317
AGTGCCTG	-0.154
GGGGTCAA	0.266
AAACGAGA	-0.0218

Sequence	PBM E-score
AATGCTTA	-0.00701
CGAATCTA	-0.0931
GATCCCCA	0.0296
CCCTGTTC	-0.109
TGGCAGAA	-0.0806
CAACTGGG	-0.165
ATCTCGCG	0.114
GAGCACAC	-0.0945
GTTGCATA	0.0598
CTTCCAAG	-0.0666
ATCTACTA	0.186
AGTCTCAG	-0.196
ATGTTAAC	0.137
AAGCCATG	-0.153
ACTGTTTA	0.0575
CACTCAGG	0.156
AACCCACC	0.343
AACATAAG	0.136
AGCAGCTA	-0.148
GACACCGA	0.0147
CCAATCGA	-0.00131
GATACTTA	0.0258
CCTGGCTC	-0.13
ACGTCTAG	-0.0284

Sequence	PBM E-score
GCCTAGGC	-0.0827
AGTGACCG	0.115
ACTCACGG	0.0383
ACCGTGGA	0.0209
CAGTAAGA	0.0404
CCGACGAA	-0.0653
AGTGGTGC	0.00684
ACCCCCTG	-0.07
AGGTGAGC	-0.167
GCCTGACC	0.0483
GTCAACCA	-0.0132
ATGACGAC	0.0124
ACTAAACA	0.138
AACCAACA	0.254
ATCATCCC	0.0399
CGTTTATC	0.0679
CGTCATTA	-0.145
ATAGTGGG	-0.0397
ACCACGCG	0.23
CGCGTGGA	-0.119
GTTAGGGA	0.0101
CGTGGCAG	-0.184
